These results are taken from paper PMC5700166.

The entries are a selection whose mix differs from that of the whole data set. The list includes weakly bound sequences.

Common to all, as to assay: protein-binding microarray (PBM)
What all share (conditions): PBM: ~300 nM protein, 6 mM HEPES pH 7.8, 80 mM KCl, 0.5 mM EDTA, 0.5 mM EGTA, 6% glycerol, 35 ng/ul poly-dIdC, 1% milk, 1 h, room temperature; Ap Aiptasia and Nv Nematostella (sea anemones) / Co Capsaspora / Aq Amphimedon (sponge) / Dm Drosophila / Hu human; RHD is the Rel homology domain; high values mean tight binding; most listed sequences are background and not binding sites; double strand, one strand shown

For assay [1], the target named is T1, GST-Ap-NF-kB RHD (UniProt A0A913YAJ5).
T1 sequence: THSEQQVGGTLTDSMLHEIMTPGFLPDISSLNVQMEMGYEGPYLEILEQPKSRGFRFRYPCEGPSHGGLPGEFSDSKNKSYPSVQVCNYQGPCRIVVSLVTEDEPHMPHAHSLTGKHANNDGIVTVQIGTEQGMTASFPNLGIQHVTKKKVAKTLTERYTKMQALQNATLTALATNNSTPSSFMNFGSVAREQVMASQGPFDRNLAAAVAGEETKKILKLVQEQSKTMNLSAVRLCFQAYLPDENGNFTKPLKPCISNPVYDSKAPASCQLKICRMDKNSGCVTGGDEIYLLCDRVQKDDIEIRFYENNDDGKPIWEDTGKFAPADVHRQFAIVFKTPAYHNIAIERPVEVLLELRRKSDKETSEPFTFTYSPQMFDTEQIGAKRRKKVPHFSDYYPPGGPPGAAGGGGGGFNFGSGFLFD

Assay [2] deals with T2, GST-Nv-NF-kB (Cys allele) (UniProt E5G601).
T2 sequence: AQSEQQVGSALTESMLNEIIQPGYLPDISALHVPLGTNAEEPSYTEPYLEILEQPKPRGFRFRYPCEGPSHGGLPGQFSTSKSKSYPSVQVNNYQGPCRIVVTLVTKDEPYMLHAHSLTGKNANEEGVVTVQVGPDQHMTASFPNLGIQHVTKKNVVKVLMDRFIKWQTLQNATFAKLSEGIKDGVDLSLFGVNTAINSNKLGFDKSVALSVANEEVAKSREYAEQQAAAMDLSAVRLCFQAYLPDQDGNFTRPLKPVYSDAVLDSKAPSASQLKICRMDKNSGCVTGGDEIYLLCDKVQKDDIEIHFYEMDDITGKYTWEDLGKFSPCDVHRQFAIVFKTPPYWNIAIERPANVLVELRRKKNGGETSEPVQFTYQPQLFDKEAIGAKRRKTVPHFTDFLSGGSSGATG

Assay [3] concerns the target T3, GST-Co-NF-kB (UniProt F1ARL5).
T3 sequence: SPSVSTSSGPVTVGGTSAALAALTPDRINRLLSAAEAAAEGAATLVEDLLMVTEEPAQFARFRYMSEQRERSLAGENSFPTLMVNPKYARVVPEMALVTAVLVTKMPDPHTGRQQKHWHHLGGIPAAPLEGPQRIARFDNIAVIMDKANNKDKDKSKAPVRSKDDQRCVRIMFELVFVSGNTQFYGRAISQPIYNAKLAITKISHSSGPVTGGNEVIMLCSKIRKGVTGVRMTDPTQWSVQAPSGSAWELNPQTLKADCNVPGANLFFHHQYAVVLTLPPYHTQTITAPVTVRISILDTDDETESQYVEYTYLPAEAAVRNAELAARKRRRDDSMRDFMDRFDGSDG

Assay [4] concerns the target T4, GST-Dm-Relish (UniProt Q94527).
T4 sequence: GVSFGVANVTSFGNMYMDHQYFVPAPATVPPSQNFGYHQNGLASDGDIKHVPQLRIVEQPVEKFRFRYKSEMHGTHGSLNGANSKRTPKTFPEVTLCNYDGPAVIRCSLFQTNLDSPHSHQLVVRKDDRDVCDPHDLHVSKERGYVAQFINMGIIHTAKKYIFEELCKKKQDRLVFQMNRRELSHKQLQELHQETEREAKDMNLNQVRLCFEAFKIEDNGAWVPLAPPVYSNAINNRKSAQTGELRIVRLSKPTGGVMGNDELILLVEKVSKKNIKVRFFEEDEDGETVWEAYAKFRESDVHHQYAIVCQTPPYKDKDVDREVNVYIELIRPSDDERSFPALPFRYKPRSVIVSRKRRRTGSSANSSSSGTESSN

For assay [5], the target named is T5, GST-Aq-NF-kB (UniProt A9Y5G7).
T5 sequence: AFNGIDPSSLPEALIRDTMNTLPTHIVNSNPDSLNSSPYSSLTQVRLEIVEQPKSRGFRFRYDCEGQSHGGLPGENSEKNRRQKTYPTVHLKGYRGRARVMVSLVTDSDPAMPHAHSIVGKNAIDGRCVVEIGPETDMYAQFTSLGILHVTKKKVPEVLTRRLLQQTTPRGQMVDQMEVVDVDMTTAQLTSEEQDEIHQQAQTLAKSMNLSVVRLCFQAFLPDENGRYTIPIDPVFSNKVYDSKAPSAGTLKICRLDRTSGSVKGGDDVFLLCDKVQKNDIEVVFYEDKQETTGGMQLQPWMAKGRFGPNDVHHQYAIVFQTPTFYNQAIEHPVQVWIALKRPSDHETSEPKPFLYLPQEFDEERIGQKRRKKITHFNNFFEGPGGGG

As to “CCGATTAACATCATTTCAACGTATGATGTTAATCGGGTCTTGATTCGCTTGACGCTGCTG”, the binding signal in assay [1] is -0.467 z-score; in assay [2], -0.698 z-score; in assay [3] it was -0.473 z-score; in assay [4], -0.503 z-score; in assay [5] it was -0.434 z-score.

Regarding “CCGATTAACATCAACGAAAATGGTGATGTTAATCGGGTCTTGATTCGCTTGACGCTGCTG”, the binding signal in assay [1] is -0.207 z-score; in assay [2], 0.338 z-score; in assay [3], 0.656 z-score; in assay [4], 0.29 z-score; in assay [5], 0.0637 z-score.

As to “CCGATTAACATCATTAATTCGGATGATGTTAATCGGGTCTTGATTCGCTTGACGCTGCTG”, the binding signal is -0.903 z-score in assay [1]; -0.498 z-score in assay [2]; -1.25 z-score in assay [3]; -0.68 z-score in assay [4]; -0.387 z-score in assay [5].

“CCGATTAACATCATTATTTCTTATGATGTTAATCGGGTCTTGATTCGCTTGACGCTGCTG”: the binding signal in assay [1] was -0.957 z-score; in assay [2], 0.0844 z-score; in assay [3], -0.287 z-score; in assay [4] it was -0.199 z-score; in assay [5] it was -0.228 z-score.

Consider “CCGATTAACATCAACTGAGCTTGTGATGTTAATCGGGTCTTGATTCGCTTGACGCTGCTG”, for which the binding signal is -0.449 z-score in assay [1]; -0.15 z-score in assay [2]; 0.12 z-score in assay [3]; -0.0984 z-score in assay [4]; -0.42 z-score in assay [5].

“CCGATTAACATCACATCTGGTCGTGATGTTAATCGGGTCTTGATTCGCTTGACGCTGCTG”: the binding signal in assay [1] was -0.604 z-score; in assay [2] it was 0.0863 z-score; in assay [3], 0.346 z-score; in assay [4] it was 0.638 z-score; in assay [5], -0.354 z-score.

In the case of “CCGATTAACATCAATTGGGTTCCTGATGTTAATCGGGTCTTGATTCGCTTGACGCTGCTG”, the binding signal was -0.107 z-score in assay [1]; -0.395 z-score in assay [2]; -0.112 z-score in assay [3]; 0.109 z-score in assay [4]; -0.157 z-score in assay [5].

With “CCGATTAACATCACTGCTCAGGATGATGTTAATCGGGTCTTGATTCGCTTGACGCTGCTG”, the binding signal in assay [1] is 0.169 z-score; in assay [2] it was -1.08 z-score; in assay [3], -0.328 z-score; in assay [4] it was -1.14 z-score; in assay [5], -0.481 z-score.

Regarding “CCGATTAACATCACCTTAATGCCTGATGTTAATCGGGTCTTGATTCGCTTGACGCTGCTG”, the binding signal in assay [1] was 0.53 z-score; in assay [2], -0.445 z-score; in assay [3], 0.264 z-score; in assay [4] it was 0.265 z-score; in assay [5], 0.581 z-score.

With “CCGATTAACATCAGGCATTTCCATGATGTTAATCGGGTCTTGATTCGCTTGACGCTGCTG”, the binding signal in assay [1] is 0.349 z-score; in assay [2] it was -0.348 z-score; in assay [3], -0.265 z-score; in assay [4], 0.053 z-score; in assay [5], 1.13 z-score.

As to “CCGATTAACATCACATCATTTTGTGATGTTAATCGGGTCTTGATTCGCTTGACGCTGCTG”, the binding signal was -1.02 z-score in assay [1]; -0.0887 z-score in assay [2]; -0.407 z-score in assay [3]; 0.925 z-score in assay [4]; -0.38 z-score in assay [5].

Consider “CCGATTAACATCAAAGCTTATCTTGATGTTAATCGGGTCTTGATTCGCTTGACGCTGCTG”, for which the binding signal in assay [1] is -0.909 z-score; in assay [2], -0.644 z-score; in assay [3] it was -0.781 z-score; in assay [4], -0.925 z-score; in assay [5], -0.56 z-score.

In the case of “CCGATTAACATCAGCGGATCCGTTGATGTTAATCGGGTCTTGATTCGCTTGACGCTGCTG”, the binding signal is -0.223 z-score in assay [1]; -0.134 z-score in assay [2]; -1.73 z-score in assay [3]; -1.12 z-score in assay [4]; -0.4 z-score in assay [5].
